# Test results from publication PMC9911399, “Two distinct binding modes provide the RNA-binding protein RbFox with extraordinary sequence specificity”.
# Where a chain is given by its changes, count along the chain named. The list shows a part of the results.
# T1: RBFOX1 RRM (Homo sapiens, UniProt Q9NWB1 109-208)
# T1 sequence: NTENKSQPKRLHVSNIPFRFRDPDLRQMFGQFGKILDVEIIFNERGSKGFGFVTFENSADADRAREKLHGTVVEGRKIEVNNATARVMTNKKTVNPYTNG
# B1: UGAACGA (DNA:RNA)
# RNA: GGGAGACCGGAAUUCAGAUUGUCCUGAACGAUUAAAUCCCGUCGUAGCCACCA
# DNA 1: CAATCTGAATTCCGGTCTCCC
# DNA 2: TGGTGGCTACGACGGGATT
# B2: CCUGGCG (DNA:RNA)
# RNA: GGGAGACCGGAAUUCAGAUUGUCCCCUGGCGUUAAAUCCCGUCGUAGCCACCA
# DNA 1: CAATCTGAATTCCGGTCTCCC
# DNA 2: TGGTGGCTACGACGGGATT
# B3: ACACCGG (DNA:RNA)
# RNA: B1 RNA with U25A, G26C, A28C, A31G
# DNA 1: CAATCTGAATTCCGGTCTCCC
# DNA 2: TGGTGGCTACGACGGGATT
# B4: UUCACCA (DNA:RNA)
# RNA: B1 RNA with G26U, A27C, G30C
# DNA 1: CAATCTGAATTCCGGTCTCCC
# DNA 2: TGGTGGCTACGACGGGATT
# B5: UAGAUCU (DNA:RNA)
# RNA: B1 RNA with G26A, A27G, C29U, G30C, A31U
# DNA 1: CAATCTGAATTCCGGTCTCCC
# DNA 2: TGGTGGCTACGACGGGATT
# B6: GGGAGAU (DNA:RNA)
# RNA: B1 RNA with U25G, A27G, C29G, G30A, A31U
# DNA 1: CAATCTGAATTCCGGTCTCCC
# DNA 2: TGGTGGCTACGACGGGATT
# B7: GAGCACC (DNA:RNA)
# RNA: B2 RNA with C25G, C26A, U27G, G28C, G29A, G31C
# DNA 1: CAATCTGAATTCCGGTCTCCC
# DNA 2: TGGTGGCTACGACGGGATT
# B8: UUUGAGG (DNA:RNA)
# RNA: B2 RNA with C25U, C26U, G29A, C30G
# DNA 1: CAATCTGAATTCCGGTCTCCC
# DNA 2: TGGTGGCTACGACGGGATT
# B9: GAUCAGA (DNA:RNA)
# RNA: B1 RNA with U25G, G26A, A27U, A28C, C29A
# DNA 1: CAATCTGAATTCCGGTCTCCC
# DNA 2: TGGTGGCTACGACGGGATT
# B10: AGUAUGC (DNA:RNA)
# RNA: B1 RNA with U25A, A27U, C29U, A31C
# DNA 1: CAATCTGAATTCCGGTCTCCC
# DNA 2: TGGTGGCTACGACGGGATT
# B11: GAUUUAC (DNA:RNA)
# RNA: B2 RNA with C25G, C26A, G28U, G29U, C30A, G31C
# DNA 1: CAATCTGAATTCCGGTCTCCC
# DNA 2: TGGTGGCTACGACGGGATT
# B12: UGAGUCU (DNA:RNA)
# RNA: B1 RNA with A28G, C29U, G30C, A31U
# DNA 1: CAATCTGAATTCCGGTCTCCC
# DNA 2: TGGTGGCTACGACGGGATT
# B13: AACACUU (DNA:RNA)
# RNA: B1 RNA with U25A, G26A, A27C, G30U, A31U
# DNA 1: CAATCTGAATTCCGGTCTCCC
# DNA 2: TGGTGGCTACGACGGGATT
# B14: GCGAAGG (DNA:RNA)
# RNA: B2 RNA with C25G, U27G, G28A, G29A, C30G
# DNA 1: CAATCTGAATTCCGGTCTCCC
# DNA 2: TGGTGGCTACGACGGGATT
# B15: UCCUAAG (DNA:RNA)
# RNA: B2 RNA with C25U, U27C, G28U, G29A, C30A
# DNA 1: CAATCTGAATTCCGGTCTCCC
# DNA 2: TGGTGGCTACGACGGGATT
# B16: CAGUACU (DNA:RNA)
# RNA: B2 RNA with C26A, U27G, G28U, G29A, G31U
# DNA 1: CAATCTGAATTCCGGTCTCCC
# DNA 2: TGGTGGCTACGACGGGATT
# B17: ACCGGGG (DNA:RNA)
# RNA: B2 RNA with C25A, U27C, C30G
# DNA 1: CAATCTGAATTCCGGTCTCCC
# DNA 2: TGGTGGCTACGACGGGATT
# B18: UUUGGCG (DNA:RNA)
# RNA: B2 RNA with C25U, C26U
# DNA 1: CAATCTGAATTCCGGTCTCCC
# DNA 2: TGGTGGCTACGACGGGATT
# B19: CUUUGCG (DNA:RNA)
# RNA: B2 RNA with C26U, G28U
# DNA 1: CAATCTGAATTCCGGTCTCCC
# DNA 2: TGGTGGCTACGACGGGATT
# B20: CGUUGCU (DNA:RNA)
# RNA: B2 RNA with C26G, G28U, G31U
# DNA 1: CAATCTGAATTCCGGTCTCCC
# DNA 2: TGGTGGCTACGACGGGATT
# B21: GGUUGCU (DNA:RNA)
# RNA: B2 RNA with C25G, C26G, G28U, G31U
# DNA 1: CAATCTGAATTCCGGTCTCCC
# DNA 2: TGGTGGCTACGACGGGATT
# B22: UCAAAGG (DNA:RNA)
# RNA: B1 RNA with G26C, C29A, A31G
# DNA 1: CAATCTGAATTCCGGTCTCCC
# DNA 2: TGGTGGCTACGACGGGATT
# B23: UACCGAU (DNA:RNA)
# RNA: B2 RNA with C25U, C26A, U27C, G28C, C30A, G31U
# DNA 1: CAATCTGAATTCCGGTCTCCC
# DNA 2: TGGTGGCTACGACGGGATT
# B24: GUUGCUA (DNA:RNA)
# RNA: B2 RNA with C25G, C26U, G29C, C30U, G31A
# DNA 1: CAATCTGAATTCCGGTCTCCC
# DNA 2: TGGTGGCTACGACGGGATT
# B25: GUCGACA (DNA:RNA)
# RNA: B2 RNA with C25G, C26U, U27C, G29A, G31A
# DNA 1: CAATCTGAATTCCGGTCTCCC
# DNA 2: TGGTGGCTACGACGGGATT
# B26: UGACGUU (DNA:RNA)
# RNA: B1 RNA with A28C, C29G, G30U, A31U
# DNA 1: CAATCTGAATTCCGGTCTCCC
# DNA 2: TGGTGGCTACGACGGGATT
# B27: GCAUACA (DNA:RNA)
# RNA: B2 RNA with C25G, U27A, G28U, G29A, G31A
# DNA 1: CAATCTGAATTCCGGTCTCCC
# DNA 2: TGGTGGCTACGACGGGATT
# B28: UACAUUU (DNA:RNA)
# RNA: B1 RNA with G26A, A27C, C29U, G30U, A31U
# DNA 1: CAATCTGAATTCCGGTCTCCC
# DNA 2: TGGTGGCTACGACGGGATT
# B29: UACAAUA (DNA:RNA)
# RNA: B1 RNA with G26A, A27C, C29A, G30U
# DNA 1: CAATCTGAATTCCGGTCTCCC
# DNA 2: TGGTGGCTACGACGGGATT
# B30: UGCCUGA (DNA:RNA)
# RNA: B1 RNA with A27C, A28C, C29U
# DNA 1: CAATCTGAATTCCGGTCTCCC
# DNA 2: TGGTGGCTACGACGGGATT
# B31: CGUGGAA (DNA:RNA)
# RNA: B2 RNA with C26G, C30A, G31A
# DNA 1: CAATCTGAATTCCGGTCTCCC
# DNA 2: TGGTGGCTACGACGGGATT
# Target: T1, RBFOX1 RRM
# Test: EMSA; HiTS-Eq, 1 nM pool, 10 min; buffer printed only for the single-RNA assays: 10 mM Tris pH 7.5, 150 mM NaCl, 3.4 mM EDTA, 0.001% NP-40, 30 C
# Settings: tags: His6 N-terminal (pET28a); label: 5' 32P
# In short: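 Relative association constants, normalised to the cognate motif, were derived by comparing read counts of each RNA species with those of the control reaction. The RNA sequenced was the free fraction, separated by 8% native PAGE after a 10 min equilibration in 50 µL of 1 nM 5′-radiolabelled RNA (7 randomized nucleotides) with increasing concentrations of purified wild-type or mutant RbFox RRM.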
row,Binder,binding signal
1,B1,0.0199 KA relative to UGCAUGU
2,B2,0.0185 KA relative to UGCAUGU
3,B3,0.000311 KA relative to UGCAUGU
4,B4,0.00293 KA relative to UGCAUGU
5,B5,0.0116 KA relative to UGCAUGU
6,B6,0.0316 KA relative to UGCAUGU
7,B7,0.00895 KA relative to UGCAUGU
8,B8,0.00903 KA relative to UGCAUGU
9,B9,0.00955 KA relative to UGCAUGU
10,B10,0.0206 KA relative to UGCAUGU
11,B11,0.00808 KA relative to UGCAUGU
12,B12,0.0175 KA relative to UGCAUGU
13,B13,0.000573 KA relative to UGCAUGU
14,B14,0.0178 KA relative to UGCAUGU
15,B15,0.0102 KA relative to UGCAUGU
16,B16,0.00554 KA relative to UGCAUGU

row,Binder,binding signal
1,B17,0.0132 KA relative to UGCAUGU
2,B18,0.0217 KA relative to UGCAUGU
3,B19,0.0182 KA relative to UGCAUGU
4,B20,0.0216 KA relative to UGCAUGU
5,B21,0.0267 KA relative to UGCAUGU
6,B22,0.00677 KA relative to UGCAUGU
7,B23,0.00545 KA relative to UGCAUGU
8,B24,0.0141 KA relative to UGCAUGU
9,B25,0.00951 KA relative to UGCAUGU
10,B26,0.023 KA relative to UGCAUGU
11,B27,0.0045 KA relative to UGCAUGU
12,B28,0.00213 KA relative to UGCAUGU
13,B29,0.00256 KA relative to UGCAUGU
14,B30,0.0398 KA relative to UGCAUGU
15,B31,0.0142 KA relative to UGCAUGU
